# Laboratory results taken from the supplement of paper PMC10320760.
# The data scatter; read single values as rough.
# B1: Ydj1; a variant is named by its letters at X, in order (parent)
# chain: MVKETKFYDILGVPVTATDVEIKKAYRKCALKYHPDKNPSEEAAEKFKEASAAYEILSDPEKRDIYDQFGEDGLSGAGGAGGFPGGGFGFGDDIFSQFFGAGGAQRPRGPQRGKDIKHEISASLEELYKGRTAKLALNKQILCKECEGRGGKKGAVKKCTSCNGQGIKFVTRQMGPMIQRFQTECDVCHGTGDIIDPKDRCKSCNGKKVENERKILEVHVEPGMKDGQRIVFKGEADQAPDVIPGDVVFIVSERPHKSFKRDGDDLVYEAEIDLLTAIAGGEFALEHVSGDWLKVGIVPGEVIAPGMRKVIEGKGMPIPKYGGYGNLIIKFTIKFPENHFTSEENLKKLEEILPPRIVPAIPKKATVDECVLADFDPAKYNRTRASRGGANYDSDEEEQGGEGVQCXXX
# Variants of: B1
# Test: enrichment factor, frequency at 37 °C / frequency at 25 °C (thermotolerance selection) (ratio); higher = more growth at 37 °C, higher likelihood of farnesylation
# Conditions: with Saccharomyces cerevisiae ydj1Δ (yWS304); selective temperature 37 °C; reference temperature 25 °C
# Procedure: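 Pooled library of all 8,000 Ydj1-CXXX C-terminal motif variants (native CASQ replaced by C + three variable residues, one codon per amino acid) expressed from a CEN plasmid in S. cerevisiae ydj1Δ (yWS304). The library was grown in SC-Ura liquid to A600 ~2 (~8 generations) at permissive 25 °C or selective 37 °C. Reads from 8 and 7 replicates were pooled and variants counted by NGS. Enrichment factor = frequency at 37 °C / frequency at 25 °C, with a +1 correction; it reports Ydj1-dependent thermotolerance, used as a read-out of farnesylation by yeast FTase.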
row,Variant,enrichment factor
1,VFM,0.927
2,VFD,1.56
3,VFH,2.08
4,VFI,1.74
5,VFE,1.9
6,DEW,0.203
7,DEY,0.092
8,DET,0.395
9,DEV,0.112
10,DES,0.118
11,QFK,1.44
12,QFH,3.76
13,QFE,2.44
14,QFI,1.35
15,QFF,1.46
16,QFA,1.95
17,QFN,4.71
18,QFM,1.43
19,QFG,2.57
20,QFC,0.157
21,QFD,1.77
22,QFL,1.02
23,WFF,1.27
24,WFN,1.68

row,Variant,enrichment factor
1,WFH,1.75
2,WFD,1.1
3,WFG,1.35
4,WFC,0.786
5,WFM,0.772
6,WFI,1.59
7,WFE,1.52
8,WFK,0.291
9,WFL,1.54
10,WFA,2.32
11,HFL,1.9
12,HFD,1.74
13,HFA,2.51
14,HFF,2.17
15,HFN,6.18
16,HFG,1.87
17,HFH,2.75
18,HFE,2.44
19,HFK,0.519
20,HFI,2.9
21,HFM,2.32
22,HFC,0.409
23,LFG,2.06
24,LFL,1.8

row,Variant,enrichment factor
1,LFI,1.04
2,LFE,1.78
3,LFK,1.25
4,LFC,0.116
5,LFF,0.772
6,LFA,1.16
7,LFH,2.7
8,LFM,1.74
9,LFD,1.91
10,LFN,0.984
11,SEY,0.127
12,SET,0.182
13,SEW,0.277
14,SES,0.928
15,SEV,0.198
16,EEY,0.208
17,EEW,0.0827
18,EEV,0.204
19,EET,0.123
20,AFD,1.81
21,AFK,1.74
22,AFI,1.39
23,AFG,3.97
24,AFN,1.75

row,Variant,enrichment factor
1,AFF,1.16
2,AFE,1.58
3,AFA,1.51
4,AFH,2.7
5,AFL,0.827
6,AFM,1.68
7,AFC,1.31
8,YEV,1.13
9,YET,0.995
10,YEY,0.157
11,YEW,0.283
12,YES,0.651
13,CES,1.63
14,CEY,0.471
15,CEW,0.671
16,CET,0.931
17,CEV,1.06
18,TFL,0.811
19,TFN,1.74
20,TFI,1.16
21,TFE,2.04
22,TFC,0.154
23,TFD,2.04
24,TFK,1.61

row,Variant,enrichment factor
1,TFH,7.72
2,TFM,1.16
3,TFF,0.772
4,TFG,2.17
5,MET,0.27
6,MEW,0.168
7,MEY,0.177
8,MES,1.34
9,MEV,0.182
10,IEV,0.679
11,IES,0.918
12,IET,0.963
13,IEW,0.165
14,IEY,0.128
15,AET,0.635
16,AEW,0.179
17,AEY,0.195
18,AEV,0.907
19,AES,1.38
20,IFN,0.869
21,IFK,1.57
22,IFE,1.36
23,IFI,0.434
24,IFG,1.24

row,Variant,enrichment factor
1,IFH,2.32
2,IFC,3.28
3,IFA,1.16
4,IFL,1.45
5,IFD,1.5
6,IFM,2.9
7,YFM,1.16
8,YFG,2.2
9,YFH,2.32
10,YFL,1.54
11,YFC,1.71
12,YFK,0.169
13,YFN,1.65
14,YFF,1.38
15,YFI,2.75
16,YFD,0.83
17,YFA,1.35
18,YFE,0.913
19,TEY,0.157
20,TEV,0.702
21,TET,0.416
22,TES,1.22
23,TEW,0.315
24,DFL,1.16

row,Variant,enrichment factor
1,DFE,0.114
2,DFK,0.201
3,DFC,0.965
4,DFI,1.94
5,DFH,0.378
6,DFN,1.47
7,DFF,1.1
8,DFA,2.23
9,DFD,0.248
10,DFG,1.14
11,DFM,1.13
12,NFN,1.9
13,NFE,1.81
14,NFK,1.01
15,NFA,2.61
16,NFG,3.11
17,NFD,1.32
18,NFL,1.22
19,NFF,1.01
20,NFI,0.941
21,NFM,1.09
22,NFC,0.579
23,NFH,4
